# Laboratory results from the supplement of paper PMC3334620.
# Whole data set: some 33,000 sequences, median “E-score (-0.5 to 0.5)” near -0.013, cut for the highest 2% near 0.3. This is one part of the list.
# Target: T1, Msn1 (UniProt P22148)
# T1 sequence: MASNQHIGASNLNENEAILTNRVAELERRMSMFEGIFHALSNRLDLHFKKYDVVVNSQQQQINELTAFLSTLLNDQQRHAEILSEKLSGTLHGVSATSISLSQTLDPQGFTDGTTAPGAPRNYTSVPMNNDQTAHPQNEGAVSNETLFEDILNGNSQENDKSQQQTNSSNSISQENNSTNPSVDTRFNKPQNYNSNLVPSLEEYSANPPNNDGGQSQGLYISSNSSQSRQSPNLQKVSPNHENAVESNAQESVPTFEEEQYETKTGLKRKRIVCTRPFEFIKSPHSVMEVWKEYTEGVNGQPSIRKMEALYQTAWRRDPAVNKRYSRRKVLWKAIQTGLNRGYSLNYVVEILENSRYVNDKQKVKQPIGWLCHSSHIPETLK
# Test: PBM E-score (8-mer binding enrichment) (E-score (-0.5 to 0.5)); higher = stronger / more preferred TF binding; most listed sequences are background and not binding sites
# Details: protein concentration: 200 nM; construct: GST-full length
# In short: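 Universal all-10-mer Agilent arrays, double-stranded by primer extension on fresh or once-stripped slides, were probed with about 100-200 nM GST-tagged yeast transcription factors made by PURExpress. Fluorescent anti-GST detected bound protein, and masliner normalised the scans. E-scores from the Universal PBM Analysis Suite were given to each ungapped eight-base word pooled with its reverse complement.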
row,Sequence,PBM E-score
1,CTAGTGAC,0.0959
2,AGCCTTCA,-0.118
3,CATTGCAA,-0.0386
4,TAAAGCAA,0.141
5,CTCGCCCA,-0.0117
6,AGGACGAA,0.256
7,AATGCCGT,0.0976
8,CGCATCGA,0.0795
9,AACACCTC,-0.0786
10,TATCACCA,-0.0358
11,AGCCAGCT,-0.0847
12,GGTACAAA,0.456
13,CTCGATGA,-0.0098
14,AATTGCCA,-0.0362
15,CCATAGCG,-0.127
16,ATTGTCCG,0.468
17,AAGGGCTG,-0.254
18,CCGATATC,0.0924
19,GAAGATGC,-0.128
20,AATACAAA,0.228
21,ACGCGGTG,-0.197
22,CAGACAGG,0.0581
23,CCTATACC,-0.176
24,AGATTGGA,0.0703
25,GGCGATCA,-0.221

row,Sequence,PBM E-score
1,CGCCAAAC,-0.146
2,GAACCTAA,-0.172
3,GGAGGGAA,-0.248
4,GGGCTCGA,-0.324
5,AAAATTGG,0.00283
6,CCGTTGTC,0.304
7,ACGGCTAT,-0.0474
8,CACGGCGC,0.0716
9,CTGGTTGC,0.0297
10,CAGTAGAC,0.168
11,GAATTAAC,0.0536
12,GGTGGTTA,-0.103
13,AACACAGA,-0.0167
14,CCCCCGAA,-0.137
15,GAATCTAA,-0.0421
16,CATCCTAC,-0.227
17,AGCCACTG,-0.0328
18,AAAGGAAT,0.0833
19,AGCTGGCC,-0.0908
20,GCGATTTA,-0.0258
21,GATAGGGC,-0.237
22,GGTTGCAC,-0.195
23,GAGCCTCA,-0.291
24,GCCGGAAA,0.0973
25,CTAAGGAG,-0.247

row,Sequence,PBM E-score
1,CCCGTATC,-0.0306
2,TAGTCACA,0.0343
3,GCTCCAGC,-0.0883
4,GGGAGCAA,-0.203
5,AGTCGTAA,0.0807
6,GCCACGGC,-0.0514
7,GAAGCTCC,-0.11
8,CATACAGC,-0.124
9,CCCAAGCA,-0.0213
10,GGGTACAC,0.0109
11,GCGCGTGA,-0.0856
12,AAAACCAC,0.211
13,GACGCTTA,-0.142
14,ACACTAGG,0.0326
15,CTCCATAC,-0.119
16,GGCACGGA,0.0552
17,CTCTTGTA,0.035
18,CCTCTCTA,-0.264
19,GGATAATA,0.124
20,GTCGCAAC,0.0671
21,CTAACATA,0.0457
22,AAAGATTC,0.173
23,AAGGTGAC,0.249
24,GTCCTTTA,0.225
25,CGCGCCAG,-0.00508

row,Sequence,PBM E-score
1,GGCGGGAC,0.0593
2,ACCTCGTC,-0.0304
3,ACGTAGAT,0.0466
4,AGGACCAC,-0.124
5,GATTCCAC,0.1
6,GGCTTCGA,-0.0792
7,CACAAAGA,0.164
8,GGTGGAAA,-0.0856
9,GTGCCTCA,-0.167
10,AAGGACAC,0.449
11,ACTGTCGC,-0.134
12,GGTAAAAA,0.0992
13,TCTGATAA,0.222
14,TATCCAAA,0.186
15,GCTAAAGA,0.133
16,CACGCGGC,-0.0237
17,CTCTGTTC,0.016
18,CTAGAAAA,0.159
19,CGATGGGC,-0.205
20,CAATACTC,0.153
21,ATGAGCTC,-0.05
22,AAGACACA,0.169
23,GTCCCGAA,0.22
24,ACCGGGTA,-0.109
25,CAGCATGA,-0.0698

row,Sequence,PBM E-score
1,AAATATCT,0.134
2,ATATCAAC,0.0182
3,ATATATAT,0.255
4,GCTCACAA,0.00698
5,CGTCCAAC,0.0843
6,CTAGGCTC,-0.18
7,ACCGCGTG,-0.118
8,CCATCATC,0.0399
9,AACGCTAG,-0.0987
10,ACGTCTCT,0.156
11,CGATGTCA,0.0775
12,TCCAGGCA,0.0282
13,AGAACGAG,0.043
14,CTTTTAGA,0.0261
15,CCAAGTAA,0.128
16,GTGCCCAC,-0.215
17,CCCCCGCC,-0.406
18,GACACAGC,0.249
19,GACGAGTA,0.0768
20,AGAGTTAT,-0.0142
21,GCTTTGCA,-0.233
22,CTGGCGCA,-0.226
23,CTTACGGC,-0.135
24,AACCTTTA,-0.194
25,CCGTCCTC,-0.103

row,Sequence,PBM E-score
1,AAACCGGA,0.14
2,AACACCCC,-0.112
3,CACCCGCC,-0.135
4,TAGGAGGA,-0.172
5,CCCTGGCA,-0.292
6,ACCTCAAA,0.00339
7,GGAACTAC,-0.152
8,CGGGAAGC,-0.135
9,GAAAAACA,0.0496
10,AGGGTGGA,-0.252
11,ACTTACGA,0.212
12,CAGTGTAG,-0.0323
13,ATAACCTC,0.15
14,ATAGTATG,0.263
15,ATCCCCAA,-0.044
16,ATAGAAAT,0.205
17,CGACTATC,-0.0263
18,CCCTCCGA,-0.0124
19,AGTGATTA,0.128
20,AATCTGAC,0.127
21,CATACTTA,0.0828
22,GGCTCTCA,-0.155
23,TAGGGCGA,-0.203
24,CAAGTCTA,-0.0671
25,TAATGAGA,0.232

row,Sequence,PBM E-score
1,CCTGGTCC,-0.173
2,CCTATTCG,0.00952
3,CGCGCAGC,-0.156
4,CTCTGATA,0.112
5,ACTCGGTA,0.0367
6,AAGATCAG,-0.225
7,TAGCCCTA,-0.081
8,CTGTGTCC,0.439
9,CTTTTCTC,-0.0403
10,ACTCTAGC,-0.209
11,GAGCACGC,-0.229
12,AAAGTCGA,0.0543
13,ACCGTCTA,-0.11
14,AACACGCT,-0.0498
15,AATCATAC,0.0636
16,ATTCCATA,0.111
17,CGCCCGAA,0.0353
18,AAACTCAG,-0.017
19,CCACCATC,-0.252
20,CCTCAGTC,-0.176
21,CTTCTTAA,-0.0177
22,AAATGCTC,0.0767
